The supplement of paper PMC9174493
Some of the results follow. Single values of this set are uncertain. Values with irradiation are relative to irradiated vehicle.

Tests used:
A549-Dual [1] = assay: NF-kB reporter (SEAP) activity, viability-corrected, relative to vehicle (fold change vs vehicle); higher = more activation of STING-IRF / NF-kB immune response reporter; conditions: 10 µM
A549-Dual [2] = assay: ISRE reporter (Lucia luciferase) activity, viability-corrected, relative to vehicle (fold change vs vehicle); higher = more activation of STING-IRF / NF-kB immune response reporter; conditions: 10 µM
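Throughout, for NF-kB reporter (SEAP) activity, viability-corrected, relative to vehicle: viability correction based on the alamar blue assay, with concentrations leaving 10% survival or less dropped.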

Row | Compound | NF-kB reporter (A549-Dual [1]; irradiation: 8 Gy/4 fr) | NF-kB reporter (A549-Dual [1]; irradiation: none) | ISRE reporter (A549-Dual [2]; irradiation: 8 Gy/4 fr) | ISRE reporter (A549-Dual [2]; irradiation: none)
1 | CN(C)CC/C=C1\c2ccccc2COc2ccccc21.Cl [Doxepin HCl] | 0.861 | 0.956 | 0.796 | 0.679
2 | CC1=CC(=O)NS(=O)(=O)O1.[KH] [Acesulfame Potassium] | 0.898 | 0.641 | 0.849 | 0.604
3 | O=C(O)CCCCCCCC(O)C(O)CCCCCCO (stereo not drawn) [Aleuritic Acid] | 0.795 | 0.819 | 0.617 | 0.548
4 | CC12CCC(=O)C=C1C=CC1C2CCC2(C)C1CCC21CCC(=O)O1 (stereo not drawn) [Canrenone] | 0.578 | 0.681 | 0.65 | 0.636
5 | Cc1c(C)c2c(c(C)c1O)CCC(C)(CCCC(C)CCCC(C)CCCC(C)C)O2 (stereo not drawn) [Vitamin E] | 1.33 | 0.908 | 1.08 | 0.584
6 | COC1/C=C/OC2(C)Oc3c(C)c(O)c4c(O)c(c(/C=N/N5CCN(C6CCCC6)CC5)c(O)c4c3C2=O)NC(=O)/C(C)=C/C=C/C(C)C(O)C(C)C(O)C(C)C(OC(C)=O)C1C (stereo in doubt) [Rifapentine] | 0.559 | 0.947 | 0.558 | 1.1
7 | Cc1nc2n(c(=O)c1CCN1CCC(c3noc4cc(F)ccc34)CC1)CCCC2 [Risperidone] | 0.703 | 1.24 | 0.547 | 0.669
8 | FC(F)F.N=C(N)NCCCC1NC(=O)C(CCCCN)NC(=O)C(Cc2ccc(O)cc2)NC(=O)C(CC(=O)O)NC(=O)CNC1=O.O=C(O)C(F)(F)F.O=CO (stereo not drawn) [Cyclo(RGDyK)] | 1.11 | 0.738 | 1.24 | 0.838
9 | COC1C(O)CC(=O)OC(C)C/C=C/C=C/C(O)C(C)CC(CC=O)C1OC1OC(C)C(OC2CC(C)(O)C(OC(=O)CC(C)C)C(C)O2)C(N(C)C)C1O (stereo not drawn) [Kitasamycin] | 0.779 | 1.18 | 0.621 | 0.792
10 | COCCCOc1ccnc(CS(=O)c2nc3ccccc3[nH]2)c1C (stereo not drawn) [Rabeprazole] | 0.371 | 0.722 | 0.142 | 0.335
11 | CC(CN1c2ccccc2Sc2ccccc21)N(C)C.Cl (stereo not drawn) [Promethazine HCl] | 0.698 | 0.884 | 1.07 | 1.25
12 | CN1CC(O)C2=C/C(=N/NC(N)=O)C(=O)C=C21 (stereo not drawn) [Carbazochrome] | 0.836 | 0.832 | 0.752 | 0.605
13 | CN1C(CCl)Nc2cc(Cl)c(S(N)(=O)=O)cc2S1(=O)=O (stereo not drawn) [Methyclothiazide] | 0.81 | 1.14 | 0.765 | 0.548
14 | O=c1cc(CO)occ1O [Kojic acid] | 1.08 | 1.08 | 0.955 | 0.763
15 | CC1OC2(CS1)CN1CCC2CC1.Cl (stereo not drawn) [Cevimeline] | 0.615 | 0.77 | 0.594 | 0.466
16 | CC1(C)SC2C(NC(=O)C(c3ccccc3)S(=O)(=O)[O-])C(=O)N2C1C(=O)[O-].[Na+].[Na+] (stereo not drawn) [Sulbenicillin Sodium] | 0.728 | 0.796 | 0.764 | 0.7
17 | COc1ccc(C2CC(=O)c3c(O)cc(OC4OC(COC5OC(C)C(O)C(O)C5O)C(O)C(O)C4O)cc3O2)cc1O (stereo not drawn) [Hesperidin] | 0.79 | 0.856 | 0.727 | 0.643
18 | NC(Cc1c[nH]c2ccc(O)cc12)C(=O)O (stereo not drawn) [5-hydroxytryptophan (5-HTP)] | 0.975 | 0.988 | 0.933 | 1.11
19 | COc1ccc(CC2c3cc(OC)c(OC)cc3CC[N+]2(C)CCC(=O)OCCCCCOC(=O)CC[N+]2(C)CCc3cc(OC)c(OC)cc3C2Cc2ccc(OC)c(OC)c2)cc1OC.O=S(=O)([O-])c1ccccc1.O=S(=O)([O-])c1ccccc1 (stereo not drawn) [Cisatracurium Besylate] | 0.627 | 0.745 | 0.591 | 0.658
20 | CC(C)(C(=O)c1cccnc1)c1cccnc1 [Metyrapone] | 0.826 | 0.809 | 0.788 | 0.72
21 | Cc1cc(O)cc(C)c1Cl [Chloroxylenol] | 0.942 | 1.26 | 0.813 | 1.19
22 | CC(CCC(=O)NCC(=O)O)C1CCC2C3C(O)CC4CC(O)CCC4(C)C3CC(O)C12C (stereo not drawn) [Glycocholic acid] | 0.515 | 0.475 | 0.673 | 0.544
23 | CCN(CC)Cc1cc(Nc2ccnc3cc(Cl)ccc23)ccc1O [Amodiaquine] | 0.792 | 0.841 | 1.03 | 1.32
24 | O=CC(O)C(O)C(OC1OC(CO)C(O)C(O)C1O)C(O)CO (stereo not drawn) [Lactose] | 0.841 | 0.791 | 1.11 | 0.713
25 | CCOc1ccc(Cc2cc(C3OC(CO)C(O)C(O)C3O)ccc2Cl)cc1 (stereo not drawn) [Dapagliflozin] | 0.809 | 0.844 | 0.79 | 0.77
26 | O=S(=O)([O-])CCCCOCC1OC2OC3=C(CO)OC(OC4C(CO)OC(OC5C(CO)OC(OC6C(CO)OC(OC7C(CO)OC(OC8C(CO)OC(OC1C(O)C2OCCCCS(=O)(=O)[O-])C(O)C8O)C(O)C7O)C(O)C6O)C(O)C5O)C(O)C4O)C(O)C3O.[Na+].[Na+] (stereo not drawn) [Captisol (SBE-β-CD)] | 1.2 | 0.778 | 1.17 | 0.608

Row | Compound | NF-kB reporter (A549-Dual [1]; irradiation: 8 Gy/4 fr) | NF-kB reporter (A549-Dual [1]; irradiation: none) | ISRE reporter (A549-Dual [2]; irradiation: 8 Gy/4 fr) | ISRE reporter (A549-Dual [2]; irradiation: none)
27 | CN(CCOc1ccc(CC2SC(=O)NC2=O)cc1)c1ccccn1.Cl (stereo not drawn) [Rosiglitazone HCl] | 0.627 | 0.915 | 0.533 | 0.686
28 | O=C(Cn1ccnc1[N+](=O)[O-])NCc1ccccc1 [Benznidazole] | 0.671 | 1.07 | 0.589 | 0.92
29 | CCC(C)(C)c1ccc(CC(C)CN2CC(C)OC(C)C2)cc1.Cl (stereo not drawn) [Amorolfine HCl] | 0.771 | 0.788 | 0.7 | 0.574
30 | CC(CN(C)C)CN1c2ccccc2CCc2ccccc21.O=C(O)/C=C\C(=O)O (stereo not drawn) [Trimipramine Maleate] | 0.767 | 0.697 | 0.694 | 0.751
31 | COC1C(OC(C)=O)CC(=O)OC(C)C/C=C/C=C/C(O)C(C)CC(CC=O)C1OC1OC(C)C(OC2CC(C)(O)C(OC(=O)CC(C)C)C(C)O2)C(N(C)C)C1O (stereo not drawn) [Josamycin] | 0.724 | 0.895 | 0.547 | 0.713
32 | CC1CNc2c(cccc2S(=O)(=O)NC(CCCNC(=N)N)C(=O)N2CCC(C)CC2C(=O)O)C1.O (stereo not drawn) [Argatroban Monohydrate] | 1.16 | 2.73 | 0.112 | 0.567
33 | CC(=O)NO [Acetohydroxamic acid] | 0.992 | 1 | 0.812 | 0.648
34 | Cl.O=C(COc1ccc(Cl)cc1)N1CCN(Cc2ccc3c(c2)OCO3)CC1 [Fipexide hydrochloride] | 0.539 | 0.653 | 0.528 | 0.611
35 | CC1OC(O)C(O)C(O)C1O.O [L-(+)-Rhamnose Monohydrate] | 0.921 | 0.488 | 0.894 | 0.516
36 | O=C(OC1CN2CCC1CC2)N1CCc2ccccc2C1c1ccccc1 (stereo not drawn) [Solifenacin] | 0.86 | 0.761 | 0.962 | 1.32
37 | CC(C)=CCC/C(C)=C/C=O [Citral] | 1.17 | 0.962 | 1.09 | 0.582
38 | NCC1OC(OC2C(N)CC(N)C(O)C2OC2OC(CO)C(O)C2O)C(N)C(O)C1O.O=S(=O)(O)O (stereo not drawn) [Ribostamycin Sulfate] | 0.794 | 0.784 | 0.812 | 0.935
39 | CC(=O)NC1C(OC2C(C(=O)O)OC(OC3C4COC(O4)C(NS(=O)(=O)O)C3O)C(O)C2O)OC(CO)C(OC2CC(C(=O)O)C(OC3OC(COS(=O)(=O)O)C(OC4OC(C(=O)O)=CC(O)C4O)C(O)C3NC(C)=O)C(O)C2O)C1C (stereo not drawn) [Enoxaparin sodium] | 0.787 | 0.596 | 0.821 | 0.411
40 | CC12CCC3c4ccc(O)cc4CCC3C1CCC2O (stereo not drawn) [Estradiol] | 1.05 | 1.22 | 0.835 | 0.829
41 | COc1ccc(CCC(=O)c2c(O)cc(OC3OC(CO)C(O)C(O)C3OC3OC(C)C(O)C(O)C3O)cc2O)cc1O (stereo not drawn) [Neohesperidin Dihydrochalcone (Nhdc)] | 0.666 | 0.583 | 0.654 | 0.483
42 | CCOC(=O)OC(C)OC1=C(C(=O)Nc2ccccn2)N(C)S(=O)(=O)c2ccccc21 (stereo not drawn) [Ampiroxicam] | 0.789 | 0.989 | 0.845 | 0.847
43 | CC(O)(P(=O)(O)O)P(=O)(O)O [Etidronate] | 0.872 | 0.931 | 0.919 | 0.961
44 | CN1CCN(c2c(F)cc3c(=O)c(C(=O)O)cn4c3c2OCN4C)CC1 [Marbofloxacin] | 0.734 | 0.927 | 0.81 | 0.961
45 | CC1=C[C@H]2C(=O)O[C@H]3C[C@@H](C/C=C(\C)C[C@@H](C)/C=C/C=C4\CO[C@H](/C1=N\O)[C@@]42O)O[C@@]1(CC[C@H](C)[C@@H](C)O1)C3.CC[C@H]1O[C@]2(CC[C@@H]1C)C[C@@H]1C[C@@H](C/C=C(\C)C[C@@H](C)/C=C/C=C3\CO[C@@H]4/C(=N\O)C(C)=C[C@@H](C(=O)O1)[C@]34O)O2 [Milbemycin Oxime] | 0.628 | 0.734 | 0.765 | 0.749
46 | CO/N=C(\C(=O)NC1C(=O)N2C(C(=O)[O-])=C(C[n+]3cccc4c3CCC4)CSC12)c1csc(N)n1.O=S(=O)(O)O (stereo not drawn) [Cefpirome sulfate] | 0.771 | 0.932 | 0.869 | 0.803
47 | Nc1ccn(CC(CO)OCP(=O)(O)O)c(=O)n1 (stereo not drawn) [Cidofovir] | 0.813 | 0.889 | 0.609 | 0.915
48 | CCN1CCCC1CNC(=O)c1cc(S(N)(=O)=O)ccc1OC (stereo not drawn) [Levosulpiride] | 0.606 | 0.737 | 0.604 | 0.608
49 | CC(C)NNC(=O)c1ccncc1 [Iproniazid] | 0.707 | 0.895 | 0.59 | 0.689
50 | NC(CO)C(=O)O (racemic) [DL-Serine] | 1.31 | 0.757 | 1.39 | 0.859
51 | CC1(C)C(C(=O)O)N2C(=O)CC2S1(=O)=O (stereo not drawn) [Sulbactam] | 0.977 | 1.11 | 0.946 | 0.755
52 | CC1(C(=O)O)CCC2(C)CCC3(C)C(=CC(=O)C4C5(C)CCC(O)C(C)(C)C5CCC43C)C2C1 (stereo not drawn) [Glycyrrhetinic acid] | 0.637 | 0.572 | 0.653 | 0.682
